From PubChem BioAssay AID652106 (National Center for Advancing Translational Sciences (NCATS), 2013)
The whole screen tested about 370,000 compounds, of which about 500 (0.14%) were called active. The inconclusive results got no clear call from the source; some entries with a clear call stand among them for comparison. Calls follow the shape of the dose curve; as a rule, active = well fitted activation curve with a large enough effect; inconclusive = small, poorly fitted or top-dose-only effect; inactive = no such curve, though single readings can be large or run the other way. Potencies of inconclusive entries are left out as doubtful fits.

Experiment: qHTS of alpha-syn Inhibitors; also: nearly all actives have a fitted effect of over 65% in size; as to growth rescue (activation): % of control where 0% means no effect
Settings: Yeast expressing alpha-synuclein, BacTiter-Glo, 24 h; Potency: growth rescue unless noted; growth rescue (activation): at 46.1 µM (top of the series) unless noted
Procedure, shortened: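 Screening used galactose-induced yeast with toxic alpha-synuclein levels, exposed to compound for 24 hr at 30 deg C. Cell growth, read with BacTiter-Glo luminescence, gave the measured signal.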
Potency is read from the fitted curve at half-maximal effect; tags tell the direction and shape of the fitted curve.

Q: With `CC(C)NC(=O)NC(=O)COC(=O)c1ccc(S(=O)(=O)Nc2ccccc2)cc1` as the compound, how does the Potency read?
A: inactive

Q: For `CN(C)CCNC(=O)C(=O)Nc1ccc2c(c1)N(S(=O)(=O)c1cccs1)CCC2`, which Potency is on record?
A: inactive

Q: With `CCN1CCc2nc(NC(=O)c3ccc4c(c3)OCCO4)sc2C1` as the compound, how does the Potency read?
A: inconclusive [activator, single point]

Q: For `COc1cccc(N/C=C/C(=O)c2ccc(OC)c(OC)c2)c1`, which growth rescue (activation) is on record?
A: inconclusive: -41.1% [activator]

Q: For `CCN(CC(=O)Nc1ccc(NC(C)=O)cc1)C(=O)C1(c2ccc(Cl)cc2)CCC1`, which Potency is on record?
A: inconclusive [activator, single point]

Q: Which Potency does the source give for `Cc1ccc([C@H]2C[C@H](O)[C@@H](n3cc(-c4ccc(F)cc4)nn3)CN2Cc2cccs2)cc1` here?
A: inconclusive [activator, single point]

Q: For `CCOc1ccc(N(Cc2cc3cc(OC)ccc3[nH]c2=O)S(C)(=O)=O)cc1`, which Potency is on record?
A: inactive

Q: For `CC(C)C(O)(C#CCN1CCCCCC1)c1ccccc1` (stereo unspecified), which Potency is on record?
A: inactive

Q: With `Cc1cccc(-n2ncc3c(=O)[nH]c(SCC(=O)NCCC4=CCCCC4)nc32)c1` as the compound, how does the Potency read?
A: inconclusive [activator, single point]

Q: With `Brc1ccc2nc(-c3ccco3)c(Cc3ccccc3)n2c1` as the compound, how does the Potency read?
A: inconclusive [activator, single point]

Q: With `CC(C)NC(=O)/C(=N\O)c1ccccc1` as the compound, how does the Potency read?
A: inactive

Q: With `CCOC(=O)c1c(NC(=O)CSc2nnc(C)s2)sc2c1CCCCC2` as the compound, how does the Potency read?
A: inconclusive [activator, single point]

Q: Which Potency does the source give for `N#Cc1ccccc1NC(=O)CN1C(=O)NC(Cc2c[nH]c3ccccc23)C1=O` (stereo unspecified) here?
A: inconclusive [activator, single point]

Q: Which Potency does the source give for `Cc1cccc(/C(N)=N/OC(=O)N2c3ccccc3Sc3ccccc32)c1` here?
A: inactive

Q: Which Potency does the source give for `O=[N+]([O-])c1ccc2c(c1)C=C/C2=C\c1ccc(C=S)cc1` here?
A: inconclusive [activator, single point]

Q: For `Cc1ccc(C)n1-c1ccc(-c2ccnc(N)n2)cc1`, which Potency is on record?
A: inactive

Q: With `O=C(CNC(=O)c1cccc(Br)c1)N/N=C/c1cc(Br)cc(Br)c1O` as the compound, how does the Potency read?
A: inconclusive [activator, single point]

Q: For `CC(C)NC(=O)C1Cc2c(-c3ccccc3Oc3ccccc3)ccnc2O1` (stereo unspecified), which Potency is on record?
A: inactive

Q: With `Cc1cc(Nc2ccccc2)n2nc(C)c(-c3ccccc3)c2n1` as the compound, how does the Potency read?
A: inactive

Q: With `CCOc1ccc(-c2[nH]ncc2Oc2ccccc2OCC)c(O)c1` as the compound, how does the Potency read?
A: inconclusive [activator, single point]

Q: For `Cc1ccc(CNc2cc(C(=O)O)ccc2C)s1`, which Potency is on record?
A: inactive

Q: For `Cc1cccc(NC(=O)Cn2cnc3ccc(S(=O)(=O)N4CCC(C)CC4)cc3c2=O)n1`, which Potency is on record?
A: inactive

Q: For `Cc1cccc(O)c1C`, which Potency is on record?
A: inactive

Q: With `CCC(=O)N(C)CCc1cc2c(c(OC)c1/C=N/NC(=O)[C@H]1C[C@@H]1c1ccccc1)OCO2` as the compound, how does the Potency read?
A: inconclusive [activator, single point]

Q: Which Potency does the source give for `CC(OC(=O)/C=C/c1ccco1)C(=O)Nc1cccc([N+](=O)[O-])c1` (stereo unspecified) here?
A: inactive

Q: For `COc1ccc(C(C)=O)cc1CC1(C)C(=O)Nc2ccc(-c3cccc(C(F)(F)F)c3)cc21` (stereo unspecified), which Potency is on record?
A: inconclusive [activator, single point]

Q: With `O=S(=O)(c1ccc2ccccc2c1)N1CCN(c2ccc(O)cc2)CC1` as the compound, how does the Potency read?
A: inconclusive [activator, partial curve]

Q: Which Potency does the source give for `COc1ccc(-c2nc(CS(=O)CC(=O)NCc3cccnc3)c(C)o2)cc1OC` (stereo unspecified) here?
A: inconclusive [activator, single point]

Q: For `Cc1ccc(NC(=O)CNC(=O)c2ccco2)c(Cl)c1`, which Potency is on record?
A: inactive

Q: Which Potency does the source give for `O=C(Cc1c[nH]c2ccccc12)OCCOC(=O)Cc1c[nH]c2ccccc12` here?
A: inconclusive [activator, single point]

Q: For `N#Cc1ccccc1OCC(=O)Nc1nc(-c2ccccn2)cs1`, which Potency is on record?
A: inconclusive [activator, single point]

Q: For `COc1ccc(-n2c(COc3cccc4ccccc34)nnc2SCC#N)cc1`, which Potency is on record?
A: inactive

Q: With `O=C(Nc1nnc(C2=COCCO2)o1)c1cccc(F)c1` as the compound, how does the Potency read?
A: inconclusive [activator, single point]

Q: With `Cn1cccc1C(=O)OCC(=O)NCCc1ccc(S(N)(=O)=O)cc1` as the compound, how does the Potency read?
A: inactive

Q: Which Potency does the source give for `Cc1ccc2c(c1)C(c1ccccc1)N(C(=O)c1ccc(Br)o1)CC(=O)N2` (stereo unspecified) here?
A: inconclusive [activator, single point]

Q: For `O=C(N/N=C/c1cccc2nccnc12)c1ccccc1O`, which Potency is on record?
A: inconclusive [activator, single point]

Q: With `C=Cc1ccc(CC2(C)C(=O)Nc3ccc(Cl)cc32)cc1` (stereo unspecified) as the compound, how does the Potency read?
A: inconclusive [activator, partial curve]

Q: With `CCNC(=S)N1CCN(CCNC2=CC(=O)CC(C)(C)C2)CC1` as the compound, how does the Potency read?
A: inconclusive [activator, single point]

Q: For `COc1cccc(NC(=S)N2CCC(c3ccc(C)cc3)C2)c1` (stereo unspecified), which Potency is on record?
A: inconclusive [activator, single point]

Q: With `COc1cccc(CNc2nc3cc(-c4csc5ccccc45)sc3c(=O)n2C)c1` as the compound, how does the Potency read?
A: inconclusive [activator, single point]

Q: For `COc1ccc(C(c2nnnn2C2CCCCC2)N2CCN(C/C=C/c3ccccc3)CC2)cc1` (stereo unspecified), which Potency is on record?
A: inconclusive [activator, single point]

Q: For `CCN(c1cccc(C)c1)S(=O)(=O)c1ccc2c(c1)CCCN2C(C)=O`, which Potency is on record?
A: inconclusive [activator, partial curve]

Q: Which Potency does the source give for `COc1ccc(-c2cc(=O)oc3c(O)c(O)ccc23)cc1` here?
A: inconclusive [activator, single point]

Q: For `O=c1oc(-c2ccccc2)cc(Cl)c1Cl`, which growth rescue (activation) is on record?
A: inconclusive: -62.8% [activator]

Q: For `Cc1nc2scc(C)n2c(=O)c1S(=O)(=O)Nc1ccc(F)cc1`, which Potency is on record?
A: inconclusive [activator, partial curve]

Q: With `O=C(Nc1nnc(-c2ccc(Cl)cc2)o1)c1nc2ccccc2s1` as the compound, how does the Potency read?
A: active: 17.8 µM

Q: Which Potency does the source give for `Cc1ccc(S(=O)(=O)N2CCN(C(=O)COC(=O)COc3ccc(Cl)cc3)CC2)c(C)c1` here?
A: inactive

Q: For `O=C(COC(=O)c1c(F)cccc1F)NCc1ccc2c(c1)OCO2`, which Potency is on record?
A: inconclusive [activator, single point]

Q: With `COc1ccc(Cc2c(C3CCCCC3)nc3ccc(Cl)cn23)c(C)c1` as the compound, how does the Potency read?
A: inconclusive [activator, single point]

Q: Which Potency does the source give for `O=C(Cn1nc(C(=O)O)c2ccccc2c1=O)NC12CC3CC(CC(C3)C1)C2` here?
A: inconclusive [activator, single point]

Q: For `C[C@@H](O)C#Cc1ccc2c(c1)O[C@H](CN(C)C(=O)Nc1ccccc1)[C@@H](C)CN([C@@H](C)CO)S2(=O)=O`, which growth rescue (activation) is on record?
A: inconclusive: -5.13% [activator]

Q: For `CCc1nc2c(OCc3ccc(C(F)(F)F)cc3)cccn2c1N(C)C(=O)c1ccc(C)cc1`, which Potency is on record?
A: inconclusive [activator, single point]

Q: With `O=C(CCCCCBr)N1CCC(CC2CC(c3ccc(Cl)cc3)=NO2)(C(=O)NCC2CCCCC2)CC1` (stereo unspecified) as the compound, how does the Potency read?
A: inactive

Q: With `CCN(Cc1ccccc1)S(=O)(=O)c1ccc(C(=O)Nc2nnc(C3CC3)o2)cc1` as the compound, how does the Potency read?
A: inconclusive [activator, single point]

Q: With `O=C(COC(=O)c1cccc(Br)c1)Nc1cccc(S(=O)(=O)N2CCCCC2)c1` as the compound, how does the Potency read?
A: inconclusive [activator, single point]

Q: Which Potency does the source give for `CCCCCCOc1ccc(NC(=O)CC2C(=O)N(CC)C(=S)N2Cc2ccco2)cc1` (stereo unspecified) here?
A: active: 14.1 µM

Q: For `COCCCn1c(SCC(=O)N2CCCC2=O)nc2ccccc2c1=O`, which Potency is on record?
A: inconclusive [activator, single point]

Q: Which Potency does the source give for `O=C(NC1CCCCC1)C(c1cccc2ccccc12)n1c(=O)c(-c2ccco2)nc2ccccc21` (stereo unspecified) here?
A: inconclusive [activator, single point]

Q: Which Potency does the source give for `CN(Cc1c(F)cccc1Cl)C(=O)CCc1c[nH]c2ccccc12` here?
A: inconclusive [activator, partial curve]

Q: For `O=S(=O)(Nc1c(S(=O)(=O)c2ccccc2)c2nc3ccccc3nc2n1C1CCCCC1)c1ccccc1`, which Potency is on record?
A: inactive

Q: With `COC(=O)c1cc2c(C)nn(C)c2s1` as the compound, how does the Potency read?
A: inactive

Q: Which Potency does the source give for `CCc1nc(SCc2cc(Cl)ccc2OC)n[nH]1` here?
A: active: 15.8 µM

Q: For `O=C(CC[C@H]1O[C@@H](n2ccc(=O)[nH]c2=O)[C@H](O)[C@@H]1O)NCCc1c[nH]c2ccccc12`, which Potency is on record?
A: inactive

Q: Which Potency does the source give for `O=C1CC(c2cc(Br)ccc2F)c2cc3c(cc2N1)CCC3` (stereo unspecified) here?
A: active: 4.47 µM

Q: For `COc1ccc(-c2nc(C)c(CCNC(=O)C(=O)Nc3ccccc3OC)s2)cc1`, which Potency is on record?
A: inconclusive [activator, single point]

Q: Which Potency does the source give for `CCCC(=O)C1C(=O)CC(CC(C)SCC)CC1=O` (stereo unspecified) here?
A: inconclusive [activator, single point]

Q: For `O=C(Nc1ccc(Cl)cc1)C1Cc2c(-c3ccccc3)ccnc2O1` (stereo unspecified), which Potency is on record?
A: inconclusive [activator, single point]

Q: With `CCOC(=O)C1(C)CCN1C(=O)c1cccc2ccccc12` (stereo unspecified) as the compound, how does the Potency read?
A: inconclusive [activator, single point]

Q: With `CN(C)CCOC1c2ccccc2CCc2ccc3ccccc3c21` (stereo unspecified) as the compound, how does the Potency read?
A: inconclusive [activator, single point]

Q: With `Cc1cc(C)c(C)c(C(=O)c2ccccc2C(=O)O)c1C` as the compound, how does the Potency read?
A: inconclusive [activator, single point]

Q: Which Potency does the source give for `Cc1cc(Cl)c2oc(C(=O)N3CCCCC3CCN3CCCC3=O)c(C)c2c1` (stereo unspecified) here?
A: inconclusive [activator, single point]
